# In PubChem BioAssay (Tox21):
# Several values for one entry are separate records, joined by “and”; a condition that tells them apart may be missing. Equal entries are not always repeated. The shares of active, inactive and inconclusive entries below differ from those in the screen. For part of these data: Where the call is inconclusive, the potency comes from a doubtful curve fit. Some structures have more than one record in an assay (separate samples or runs), and their calls can disagree. Activity calls are given as the source filed them. Unless noted, calls come from the whole dose curve; as a rule, active = well fitted curve in the direction sought with a large enough effect in the repeat runs; inconclusive = weak or mixed curves; inactive = no such curve, though single readings can be large; an effect the other way counts as inactive or inconclusive.
# How the values were obtained:
# [1] = biological target: Estrogen receptor (Homo sapiens) (UniProt P03372); test: qHTS assay to identify small molecule agonists of the estrogen receptor alpha (ER-alpha) signaling pathway using the BG1 cell line (AID 743079); conditions: BG1Luc4E2 cells, ERE-luciferase agonist, 22 h; activation: at 70.3 µM (top of the series) unless noted; note: nearly all actives have a fitted effect of over 20% in size; note: potency is the fitted concentration of half-maximal effect
# [2] = qHTS assay to identify small molecule agonists of H2AX - cell viability counter screen (AID 1224847; calls by dose curve; note: nearly all actives have a fitted effect of over 30% in size; note: potency is the fitted concentration of half-maximal effect; for activity change, negative = cytotoxicity: top concentration of the series differs between compounds; % is set by controls: 0 for no effect and ±100 for the full control effect)
# Method in brief: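 CHO-K1 cells plated overnight at 37C, then exposed 3 h at 37C to compounds at 15 concentrations (0.76% DMSO final). Viability by CellTiter-Glo luminescence after 30 min at room temperature.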
# [3] = biological target: Estrogen receptor beta (Homo sapiens) (UniProt Q92731); test: qHTS assay to identify small molecule agonists of the estrogen receptor beta (ER-beta) signaling pathway (AID 1259377; active = well fitted activation curve with a large enough effect in the signal ratio in the repeat runs, not every such curve was filed as active; inconclusive = weak or mixed curves, or effect the other way; the % refers to the signal ratio; note: % is set by controls: 0 for no effect and ±100 for the full control effect); conditions: ER-beta-UAS-bla HEK293T, beta-lactamase FRET ratio, 16 h
# Method in brief: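 ER-beta-UAS-bla HEK293T cells in medium with 2% charcoal-stripped FBS were exposed to compounds for 16 h at 37C. Beta-lactamase reporter activity was read as fluorescence after 2 h with LiveBLAzer B/G FRET substrate at room temperature.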
# [4] = qHTS assay for identifying genotoxic compounds that show differential cytotoxicity against isogenic chicken DT40 cell lines with known DNA damage response pathways - Rad54/Ku70 mutant cell line (AID 743015); conditions: DT40 Rad54/Ku70 mutant viability, CellTiter-Glo, 40 h; activity change, negative = cytotoxicity: at 66.8 µM (top of the series); note: nearly all actives have a fitted effect of over 60% in size; note: potency is the fitted concentration of half-maximal effect; for activity change, negative = cytotoxicity: % is set by controls: 0 for no effect and ±100 for the full control effect
# [5] = qHTS assay to identify small molecule antagonists of the estrogen receptor alpha (ER-alpha) signaling pathway - cell viability counter screen (AID 743074; calls by dose curve;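 note: HEK293 cells carrying ER-alpha-UAS-bla reporter stimulated with 17beta-estradiol; nearly all actives have a fitted effect of over 45% in size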; note: potency is the fitted concentration of half-maximal effect)
# [6] = biological target: Peroxisome proliferator-activated receptor gamma (Homo sapiens) (UniProt P37231); test: qHTS assay to identify small molecule agonists of the peroxisome proliferator-activated receptor gamma (PPARg) signaling pathway (AID 743094; active = well fitted activation curve with a large enough effect in the signal ratio in the repeat runs, not every such curve was filed as active; inconclusive = weak or mixed curves, or effect the other way; inactive = no such curve, though single readings can be large or run the other way; the % refers to the signal ratio; note: potency is the fitted concentration of half-maximal effect); conditions: HEK293H PPARg-UAS-bla, beta-lactamase FRET ratio, 17 h; activation: at 57 µM (top of the series) unless noted
# Method in brief: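 Reporter activation was scored by fluorescence of cleaved LiveBLAzer B/G substrate (1 h, room temperature) in PPARg-bla HEK293H cells previously treated 17 h at 37C with DMSO-dissolved compounds.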
# [7] = qHTS assay to identify small molecule agonists of H2AX (AID 1224845; active = well fitted activation curve with a large enough effect in the signal ratio in the repeat runs, not every such curve was filed as active; inconclusive = weak or mixed curves; the % refers to the signal ratio; note: potency is the fitted concentration of half-maximal effect); conditions: CHO-K1 phospho-H2AX Ser139 HTRF, 3 h; activation (H2AX phosphorylation): at 154 µM (top of the series) unless noted
# Method in brief: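 Wild-type CHO-K1 cells, plated overnight, exposed 3hr at 37C to 15 concentrations (0.76% DMSO final). Lysed, then HTRF anti-pH2AX (S139) cryptate and anti-H2AX-d2 antibodies, 24 hr room temperature; 665/620 nm emission read.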
# [8] = A CellTox Green Cytotoxicity Assay to monitor cytotoxicity in HEK293 cells - 40 hour (AID 1224871); note: nearly all actives have a fitted effect of over 45% in size; note: potency is the fitted concentration of half-maximal effect
# Method in brief: (§1)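 Dead-cell fluorescence measured kinetically: asymmetric cyanine dye, HEK293, 600 cells/well, 5 h settle, 23 nL cpd/DMSO, 37 C, reads 0–40 h every 8 h.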
# [9] = A CellTox Green Cytotoxicity Assay to monitor cytotoxicity in HEK293 cells - 32 hour (AID 1224881); note: potency is the fitted concentration of half-maximal effect; nearly all actives have a fitted effect of over 40% in size
# Method in brief: as §1
# [10] = qHTS RealTime-Glo MT Cell Viability Assay in HEK293 cells - 8 hour (AID 1224887); note: nearly all actives have a fitted effect of over 50% in size; note: potency is the fitted concentration of half-maximal effect
# Method in brief: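 600 HEK293 cells per well, dispensed already mixed with RealTime-Glo MT reagents. Compound dosing came 5 h later. The same wells were read for luminescence at 0, 8, 16, 24, 32 and 40 h of exposure at 37 C.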
# [11] = biological target: Peroxisome proliferator-activated receptor delta (Homo sapiens) (UniProt Q03181); test: qHTS assay to identify small molecule antagonists of the peroxisome proliferator-activated receptor delta (PPARd) signaling pathway (AID 743215; active = well fitted inhibition curve with a large enough effect in the signal ratio in the repeat runs, not every such curve was filed as active; inconclusive = weak or mixed curves, or effect the other way; inactive = no such curve, though single readings can be large or run the other way; the % refers to the signal ratio;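 note: cells stimulated with agonist L165041 at 300 nM final during compound exposure; % is set by controls: 0 for no effect and ±100 for the full control effect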); conditions: HEK293H PPARd-UAS-bla, beta-lactamase FRET ratio, antagonist, 17 h
# Method in brief: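 Plated HEK293H PPARd-bla cells rested 5 h at 37 C and 5% CO2. Compound, then agonist L165041 at 300 nM final, was added; 17 h at 37 C followed. Substrate loading, 2 h room temperature, fluorescence measured.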
# [12] = qHTS RealTime-Glo MT Cell Viability Assay in HEK293 cells - 32 hour (AID 1224868); note: potency is the fitted concentration of half-maximal effect; nearly all actives have a fitted effect of over 50% in size
# Method in brief: (§2)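 Tox21 10K qHTS, HEK293, 600 cells/well, RealTime-Glo reagent co-dispensed with cells; 5 h preincubation, compound by pintool, 37 C, luminescence at 0–40 h.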
# [13] = qHTS RealTime-Glo MT Cell Viability Assay in HEK293 cells - 24 hour (AID 1224886); note: nearly all actives have a fitted effect of over 50% in size; note: potency is the fitted concentration of half-maximal effect
# Method in brief: as §2
# [14] = biological target: Progesterone receptor (Homo sapiens) (UniProt P06401); test: qHTS assay to identify small molecule agonists of the progesterone receptor (PR) signaling pathway (AID 1346784; calls by dose curve; note: nearly all actives have a fitted effect of over 30% in size; note: potency is the fitted concentration of half-maximal effect); conditions: PR-UAS-bla HEK293T, beta-lactamase FRET ratio, 16 h; activation: at 92.4 µM (top of the series) unless noted
# Method in brief: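 PR-UAS-bla HEK 293T cells (beta-lactamase reporter under UAS) in 2% charcoal-stripped FBS, dosed with 23 nL compound after 6 hr, incubated 16hr at 37C. LiveBLAzer B/G FRET substrate added, fluorescence read after 2 hours.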
# [15] = Caspase-3/7 induction in CHO-K1 cells by small molecules, qHTS cell viability counter screen (AID 1346979); note: nearly all actives have a fitted effect of over 35% in size; note: potency is the fitted concentration of half-maximal effect
# Method in brief: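 Wild-type CHO-K1 cells (1,500/well) treated with compound after 5 h plating; after 16 h at 37C, viability read as CellTiter-Fluor fluorescence following 1 h reagent incubation, in the same wells as the caspase read.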
# [16] = qHTS assay for identifying genotoxic compounds that show differential cytotoxicity against isogenic chicken DT40 cell lines with known DNA damage response pathways - wild type cell line (AID 743012); conditions: DT40 wild type chicken cells viability, CellTiter-Glo, 40 h; activity change, negative = cytotoxicity: at 68.4 µM (top of the series) unless noted; note: nearly all actives have a fitted effect of over 60% in size; note: potency is the fitted concentration of half-maximal effect
# Method in brief: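 Luminescent ATP viability signal (CellTiter-Glo, 30 min RT) recorded after wild type DT40 cells were incubated with compounds for 40 h at 37 C/5% CO2.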
# [17] = qHTS assay to identify small molecule antagonists of the peroxisome proliferator-activated receptor gamma (PPARg) signaling pathway - cell viability counter screen (AID 743194); conditions: PPARg-bla HEK293H viability, CellTiter-Glo luminescence, 17 h; Potency: co-treated with 50 nM rosiglitazone unless noted; activity change, negative = cytotoxicity: at 62.6 µM (top of the series), co-treated with 50 nM rosiglitazone unless noted; note: nearly all actives have a fitted effect of over 55% in size; note: potency is the fitted concentration of half-maximal effect
# Method in brief: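 Cytotoxicity counter screen in PPARg-bla HEK293H cells, same wells as reporter assay. Compounds plus 50 nM rosiglitazone (final) for 17 h at 37 C, then viability read by CellTiter-Glo luminescence.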
# [18] = qHTS assay to identify small molecule agonists of the peroxisome proliferator-activated receptor delta (PPARd) signaling pathway - cell viability counter screen (AID 743211); conditions: PPARd-bla HEK293H viability, CellTiter-Glo luminescence, 17 h; activity change, negative = cytotoxicity: at 62.6 µM (top of the series); note: nearly all actives have a fitted effect of over 55% in size; note: potency is the fitted concentration of half-maximal effect
# Method in brief: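 PPARd-bla HEK293H cells (3000/well) were pre-incubated 5 h at 37 C, then exposed to compound for 17 h at 37 C. After 2 h with LiveBLAzer substrate, CellTiter-Glo was added to the same wells; luminescence read after 30 min at room temperature.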
# [19] = qHTS assay to identify small molecule agonists of the estrogen receptor beta (ER-beta) signaling pathway - cell viability counter screen (AID 1259380); note: potency is the fitted concentration of half-maximal effect; nearly all actives have a fitted effect of over 30% in size
# Method in brief: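 Steps: plate ER-beta-UAS-bla HEK293T cells, rest 6 hr; add compounds in DMSO; incubate 16 hr at 37C, 5% CO2; add FRET substrate 2 hr; add CellTiter-Glo, wait 30 min at room temperature; read luminescence.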
# [20] = activation: at 92.4 µM (top of the series) unless noted
# [21] = ratio activity, negative = inhibition: at 62 µM (top of the series) unless noted
# Tags give direction and shape of the fitted curve or compound fluorescence and quenching.
# UniProt P03372, sequence (P03372 whole entry, looked up): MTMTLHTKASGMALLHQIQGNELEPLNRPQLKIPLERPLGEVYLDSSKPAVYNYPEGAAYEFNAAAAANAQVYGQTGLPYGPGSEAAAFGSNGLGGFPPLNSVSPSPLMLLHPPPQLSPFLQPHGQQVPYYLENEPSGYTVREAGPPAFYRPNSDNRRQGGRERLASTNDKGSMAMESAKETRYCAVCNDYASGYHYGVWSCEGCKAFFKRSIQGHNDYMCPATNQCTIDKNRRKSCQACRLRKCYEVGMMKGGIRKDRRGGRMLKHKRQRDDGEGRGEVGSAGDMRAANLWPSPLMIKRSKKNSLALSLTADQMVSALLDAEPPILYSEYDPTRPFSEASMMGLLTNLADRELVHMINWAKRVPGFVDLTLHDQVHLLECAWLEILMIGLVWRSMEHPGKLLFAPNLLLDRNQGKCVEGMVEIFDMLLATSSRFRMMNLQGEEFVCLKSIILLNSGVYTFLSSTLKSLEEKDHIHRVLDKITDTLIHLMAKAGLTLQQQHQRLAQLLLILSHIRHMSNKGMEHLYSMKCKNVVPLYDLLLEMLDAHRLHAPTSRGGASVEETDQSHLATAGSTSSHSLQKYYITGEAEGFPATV
# UniProt P06401, sequence (P06401 whole entry, looked up): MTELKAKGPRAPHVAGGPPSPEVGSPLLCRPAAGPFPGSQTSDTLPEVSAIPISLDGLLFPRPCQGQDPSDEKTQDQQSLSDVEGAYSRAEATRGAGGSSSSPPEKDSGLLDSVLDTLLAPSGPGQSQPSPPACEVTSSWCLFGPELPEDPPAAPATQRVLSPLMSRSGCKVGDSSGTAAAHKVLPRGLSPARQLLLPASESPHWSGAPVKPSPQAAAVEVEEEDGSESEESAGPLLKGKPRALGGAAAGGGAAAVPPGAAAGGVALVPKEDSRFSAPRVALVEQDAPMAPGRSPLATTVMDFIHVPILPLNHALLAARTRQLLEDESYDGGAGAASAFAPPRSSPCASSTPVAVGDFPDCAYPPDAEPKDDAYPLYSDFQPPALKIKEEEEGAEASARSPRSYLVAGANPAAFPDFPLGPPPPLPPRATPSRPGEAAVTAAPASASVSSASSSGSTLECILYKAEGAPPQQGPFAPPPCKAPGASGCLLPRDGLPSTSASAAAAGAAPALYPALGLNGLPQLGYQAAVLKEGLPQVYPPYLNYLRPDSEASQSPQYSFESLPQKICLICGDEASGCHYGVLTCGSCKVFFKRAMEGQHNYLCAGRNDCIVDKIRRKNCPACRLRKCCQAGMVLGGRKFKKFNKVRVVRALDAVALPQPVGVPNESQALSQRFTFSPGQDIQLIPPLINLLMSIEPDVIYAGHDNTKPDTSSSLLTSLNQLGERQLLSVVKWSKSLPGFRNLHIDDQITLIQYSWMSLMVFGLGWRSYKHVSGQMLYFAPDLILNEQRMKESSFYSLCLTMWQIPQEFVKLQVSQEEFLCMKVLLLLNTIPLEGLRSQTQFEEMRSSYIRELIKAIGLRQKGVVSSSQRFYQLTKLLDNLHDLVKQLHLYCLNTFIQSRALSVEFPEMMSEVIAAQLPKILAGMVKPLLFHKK
# UniProt Q92731, sequence (Q92731 whole entry, looked up): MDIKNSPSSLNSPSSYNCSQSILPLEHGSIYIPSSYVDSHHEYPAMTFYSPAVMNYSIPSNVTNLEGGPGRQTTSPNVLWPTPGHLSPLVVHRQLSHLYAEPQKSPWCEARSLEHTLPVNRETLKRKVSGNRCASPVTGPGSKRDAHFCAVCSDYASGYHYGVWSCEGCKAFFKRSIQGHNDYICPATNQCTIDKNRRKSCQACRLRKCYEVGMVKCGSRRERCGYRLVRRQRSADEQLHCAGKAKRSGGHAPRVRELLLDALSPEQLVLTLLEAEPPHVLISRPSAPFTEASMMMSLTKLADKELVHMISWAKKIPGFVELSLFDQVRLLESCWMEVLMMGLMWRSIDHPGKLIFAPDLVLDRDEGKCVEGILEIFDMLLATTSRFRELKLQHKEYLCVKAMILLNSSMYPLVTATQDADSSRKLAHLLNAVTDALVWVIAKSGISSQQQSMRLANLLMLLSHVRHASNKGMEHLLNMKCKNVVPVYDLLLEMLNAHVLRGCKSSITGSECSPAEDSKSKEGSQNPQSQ
# UniProt Q03181, sequence (Q03181 whole entry, looked up): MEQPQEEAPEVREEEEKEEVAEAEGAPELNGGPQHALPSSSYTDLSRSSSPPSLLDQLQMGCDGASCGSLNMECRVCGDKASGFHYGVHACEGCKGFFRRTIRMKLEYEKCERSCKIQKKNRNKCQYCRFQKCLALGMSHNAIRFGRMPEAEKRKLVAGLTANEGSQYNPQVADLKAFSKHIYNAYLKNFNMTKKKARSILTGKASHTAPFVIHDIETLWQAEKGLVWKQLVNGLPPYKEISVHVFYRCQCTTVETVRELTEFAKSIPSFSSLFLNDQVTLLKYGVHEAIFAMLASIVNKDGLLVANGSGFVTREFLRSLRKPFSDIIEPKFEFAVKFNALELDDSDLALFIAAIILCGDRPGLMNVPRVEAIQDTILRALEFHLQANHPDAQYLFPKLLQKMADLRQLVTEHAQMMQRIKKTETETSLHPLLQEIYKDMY
# UniProt P37231, sequence (P37231 whole entry, looked up): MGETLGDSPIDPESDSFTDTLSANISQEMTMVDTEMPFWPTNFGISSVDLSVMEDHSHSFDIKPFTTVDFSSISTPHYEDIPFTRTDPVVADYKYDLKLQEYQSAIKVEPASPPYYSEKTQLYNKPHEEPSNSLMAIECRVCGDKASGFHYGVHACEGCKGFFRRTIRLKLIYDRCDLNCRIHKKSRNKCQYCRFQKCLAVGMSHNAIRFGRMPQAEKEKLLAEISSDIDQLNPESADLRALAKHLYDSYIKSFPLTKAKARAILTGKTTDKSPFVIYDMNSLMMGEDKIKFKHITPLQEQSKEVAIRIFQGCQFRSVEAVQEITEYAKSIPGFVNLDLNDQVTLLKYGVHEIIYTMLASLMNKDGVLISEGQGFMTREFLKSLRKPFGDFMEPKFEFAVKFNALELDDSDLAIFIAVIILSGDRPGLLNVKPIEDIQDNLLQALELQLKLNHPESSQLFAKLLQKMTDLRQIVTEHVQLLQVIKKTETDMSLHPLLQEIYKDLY
structure (smiles),measurement,setting,value
CCOP(=S)(OCC)SCSc1cc(Cl)ccc1Cl,Potency,[1],"inconclusive: 68.6 µM [activator, single point]"
CCOP(=O)(OCC)OP(=O)(OCC)OCC,Potency,[2],inactive
same,activation,[3]; [20],inconclusive: 10.8%
Clc1cnc(Oc2ccc(Oc3ncc(Cl)cc3Cl)cc2)c(Cl)c1,Potency,[4],inactive and active: 30.6 µM
same,Potency,[5],"inconclusive: 1.55 µM [cytotoxic, full curve, poor fit]"
same,activation,[6],inconclusive: -1.24%
same,Potency,[7],"inconclusive: 89.8 µM [fluorescent, partial curve]"
same,Potency,[2],"inconclusive: 45 µM [cytotoxic, partial curve, poor fit]"
same,Potency,[8],"inconclusive: 27.2 µM [activator, partial curve]"
same,Potency,[9],"inconclusive: 30.5 µM [activator, partial curve, poor fit] and active: 27.5 µM"
same,Potency,[10],"inconclusive: 30.9 µM [cytotoxic, partial curve, poor fit]"
C=CC(=O)NC(C)(C)CC(C)=O,Potency,[4],"inconclusive: 68.6 µM [cytotoxic, single point]"
same,Potency,[7],inactive
CCCC[N+](CCCC)(CCCC)CCCC,"ratio activity, negative = inhibition",[11]; [21],inconclusive: 5.91%
same,Potency,[2],inactive
same,Potency,[12],"inconclusive: 19.5 µM [cytotoxic, partial curve]"
same,Potency,[13],"inconclusive: 19.5 µM [cytotoxic, partial curve]"
same,Potency,[14],inactive
same,Potency,[15],inactive
CC(=O)CC(c1ccc(Cl)cc1)c1c(O)c2ccccc2oc1=O (stereo not drawn),Potency,[1],inactive
same,Potency,[6],"inconclusive: 20.5 µM [falling, partial curve, poor fit]"
same,Potency,[7],"inconclusive: 119 µM [falling, partial curve, poor fit]"
same,Potency,[2],"inconclusive: 0.942 µM [cytotoxic, single point]"
same,Potency,[10],inactive
O=C(O)CCl,Potency,[16],inactive
same,Potency,[5],"inconclusive: 22.2 µM [rising, single point]"
same,Potency,[2],inactive
same,Potency,[13],inactive
same,activation,[3]; [20],inconclusive: 7.39%
same,activation,[3]; at 92.4 µM (top of the series),inactive: 9.42% and inactive: -1.56%
C=CCBr,Potency,[1],inactive
CCNc1nc(NCC)nc(SC)n1,Potency,[16],"inconclusive: 68.6 µM [cytotoxic, single point]"
same,Potency,[4],"inconclusive: 68.6 µM [cytotoxic, single point]"
same,Potency,[17],"inconclusive: 0.155 µM [cytotoxic, full curve, poor fit]"
same,Potency,[18],inactive
same,Potency,[3]; [20],inactive
CNC(=O)/C=C(\C)OP(=O)(OC)OC,Potency,[17],"inconclusive: 6.16 µM [rising, full curve, poor fit]"
same,Potency,[7],"inconclusive: 127 µM [falling, partial curve, poor fit]"
CC(C)CC#N,Potency,[1],inactive
same,Potency,[7],inactive
same,Potency,[8],inactive
same,Potency,[15],"inconclusive: 78.8 µM [cytotoxic, partial curve, poor fit]"
CN(C)c1nc(=O)n(C2CCCCC2)c(=O)n1C,Potency,[1],inactive
same,Potency,[17],"inconclusive: 0.368 µM [rising, partial curve, poor fit]"
same,Potency,[15],"inconclusive: 72.9 µM [cytotoxic, single point]"
CC(=O)C1CCOC1=O (stereo not drawn),Potency,[4],inactive
same,Potency,[5],inactive
same,"ratio activity, negative = inhibition",[11]; at 62 µM (top of the series),inactive: 15.2%
same,"ratio activity, negative = inhibition",[11]; [21],inconclusive: -0.74% [at 80.4 µM]
same,Potency,[8],inactive
CCC1(c2ccccc2)C(=O)NC(=O)NC1=O,Potency,[5],inactive
Nc1cc2c3c(c1)C(c1ccccc1)=N[C@@H](NC(=O)c1cccnc1)C(=O)N3CC2,Potency,[5],inactive
same,activation,[6],inconclusive: 1.94%
same,Potency,[14],inactive
same,Potency,[15],"inconclusive: 54.5 µM [cytotoxic, single point]"
N#CCCCCC#N,Potency,[4],"inconclusive: 68.6 µM [cytotoxic, single point]"
same,Potency,[5],"inconclusive: 62.9 µM [cytotoxic, single point]"
same,Potency,[6],inactive
same,"activity change, negative = cytotoxicity",[17],inconclusive: -0.199%
same,Potency,[19],"inconclusive: 19.3 µM [rising, partial curve, poor fit]"
C[N+](C)(C)CC(=O)[O-],Potency,[16],"inconclusive: 15.3 µM [rising, partial curve, poor fit]"
same,activation,[1],inconclusive: 0.746% [phenotype inactive]
same,Potency,[18],inactive
same,Potency,[11]; [21],inactive
same,Potency,[14],"inconclusive: 48.7 µM [activator, partial curve]"
[O-][Cl+3]([O-])([O-])O,Potency,[5],inactive
same,"ratio activity, negative = inhibition",[11]; [21],inconclusive: -8.05% [at 80.4 µM]
same,Potency,[3]; [20],inactive
COC(=O)C1(O)c2ccccc2-c2ccccc21,Potency,[16],"inconclusive: 54.5 µM [cytotoxic, single point]"
same,Potency,[17],inactive
C[C@]12CC[C@H]3[C@@H](CC=C4C[C@@H](O)CC[C@@]43C)[C@@H]1CC[C@@H]2O,Potency,[4],active: 29.8 µM
same,Potency,[19],"inconclusive: 0.668 µM [cytotoxic, single point]"
Cc1ccc([N+](=O)[O-])cc1C,activation,[1],inconclusive: 0.658% [phenotype inactive]
same,Potency,[17],inactive
same,Potency,[18],"inconclusive: 48.1 µM [cytotoxic, partial curve]"
O=C(Cl)C(Cl)Cl,Potency,[16],inactive
same,Potency,[1],inactive
O=C1NC(=O)C(=O)C(=O)N1,Potency,[18],inactive
